# Source: PubChem BioAssay AID488969 (Vanderbilt High Throughput Screening Facility, 2010)
# The full ranking holds about 110,000 compounds; the median of “z-score” is about -0.1, and the highest 2% start at about 2. The list shows a part of the results. Active and inactive are the calls of the source.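 The calls were made as follows: active = z-score in the third read window above 3 or below -3; inactive = the rest.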
# Target: Metabotropic glutamate receptor 8 (Rattus norvegicus) (UniProt P70579)
# Experiment: rat mGluR8 modulators via GIRK flux, primary screen, cell-based, thallium flux, HTS (AID 488969)
# Conditions: HEK293 rat mGluR8, GIRK (G protein-gated inwardly rectifying potassium channel) thallium flux, FluoZin2; at 10 µM; stronger effect = higher value; submaximal glutamate (EC20) added with thallium
# Chain of UniProt P70579 (P70579 whole entry, looked up): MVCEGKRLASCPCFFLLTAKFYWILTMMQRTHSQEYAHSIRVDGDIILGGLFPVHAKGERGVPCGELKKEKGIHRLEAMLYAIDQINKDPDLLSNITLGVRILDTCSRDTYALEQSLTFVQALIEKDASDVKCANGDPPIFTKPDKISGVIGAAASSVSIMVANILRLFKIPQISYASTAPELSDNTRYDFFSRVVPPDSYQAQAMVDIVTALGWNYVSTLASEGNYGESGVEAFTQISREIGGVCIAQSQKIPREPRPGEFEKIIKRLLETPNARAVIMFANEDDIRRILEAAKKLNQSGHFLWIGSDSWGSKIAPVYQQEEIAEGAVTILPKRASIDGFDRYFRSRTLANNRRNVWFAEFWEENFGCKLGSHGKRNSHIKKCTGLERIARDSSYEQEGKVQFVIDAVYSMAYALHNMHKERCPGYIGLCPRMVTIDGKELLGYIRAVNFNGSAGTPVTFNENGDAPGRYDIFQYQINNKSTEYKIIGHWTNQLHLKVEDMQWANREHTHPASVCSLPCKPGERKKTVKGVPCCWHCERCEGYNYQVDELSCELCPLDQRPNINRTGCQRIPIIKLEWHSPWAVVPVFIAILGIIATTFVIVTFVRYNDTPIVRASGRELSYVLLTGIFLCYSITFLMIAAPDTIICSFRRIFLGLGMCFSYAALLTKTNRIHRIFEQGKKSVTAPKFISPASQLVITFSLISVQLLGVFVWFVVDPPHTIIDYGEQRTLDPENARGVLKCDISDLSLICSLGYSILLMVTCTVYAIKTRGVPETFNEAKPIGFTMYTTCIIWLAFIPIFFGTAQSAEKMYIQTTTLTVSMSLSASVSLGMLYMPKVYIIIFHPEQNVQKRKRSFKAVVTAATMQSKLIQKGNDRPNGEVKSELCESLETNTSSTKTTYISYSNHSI
row,SMILES,z-score
1,Cc1ccc(NC(=O)CCCCCC2NC(=O)NC2C)cc1 (configuration not stated),-0.0926
2,COc1ccccc1-c1c(C(F)(F)F)oc2cc(OC(=O)c3ccc([N+](=O)[O-])cc3)ccc2c1=O,-1.55
3,Cc1ccc(S(=O)(=O)N(C(=O)c2ccncc2)c2ccc(OC(=O)c3ccncc3)c3ccccc23)cc1,0.393
4,Cc1occc1-c1nnc(SCC(=O)N(C)CCC#N)n1N,0.286
5,CC(=O)N1N=C(c2ccc(Cl)cc2)OC1(C)C,0.00963
6,O=C(CNS(=O)(=O)c1ccc(F)cc1)Nc1ccc(C(F)(F)F)cc1,0.512
7,NC(=O)C1(N2CCCCC2)CCN(CC(=O)Nc2ccccc2Sc2ccccc2)CC1,-0.126
8,O=C(CN1CCN(Cc2ccc3c(c2)OCO3)CC1)Nc1ccc(F)cc1,-0.502
9,COc1ccc(C2=C(C=C(C#N)C#N)C(c3ccccc3C)c3ccccc3O2)cc1OC (configuration not stated),-0.163
10,O=C(Cn1ncc2c(=O)oc3ccccc3c21)Nc1nc2ccccc2s1,0.213
11,COc1ccc2nc(NC(=O)/C=C/c3ccc4c(c3)OCO4)sc2c1,-0.015
12,COCCNC(=O)C(c1ccc(C)cc1)N(C(=O)CCC(=O)Nc1ccccn1)C1CCCC1 (configuration not stated),0.0645
13,CCCc1ccc(-c2cc(N)n[nH]2)cc1,0.0748
14,COc1cccc(N=Cc2c(O)n(-c3cccc(C)n3)c(=O)c3ccccc23)c1,-0.226
15,CCCCCCN1CC(O)=C(c2ccccc2)C1=N,-0.0279
16,C=C(Cl)COc1ccc2c(CCC)cc(=O)oc2c1,-0.466
17,CCOc1ccccc1OCC(=O)Nc1nnc(COC)s1,0.236
18,CC(NC(=O)c1noc2c1CCCCC2)c1ccccc1 (configuration not stated),0.232
19,O=C(COC(=O)c1ccccc1Nc1ccccc1)NCc1ccccc1Cl,0.185
20,C=CCOn1c(C)c(C(C)=O)c2c3no[n+]([O-])c3ccc21,-0.449
21,O=C(c1cc2ccccc2oc1=O)N(Cc1ccccc1)CC1CCCO1 (configuration not stated),-0.391
22,CC1CCN(C(NC(=O)c2ccco2)C(=O)c2ccccc2)CC1 (configuration not stated),-0.642
23,Cc1ccc(NC(=O)c2ccc(CSc3nnc(-c4ccncc4)n3C)cc2)c(C)c1,-0.244

row,SMILES,z-score
1,CCOc1ccc(NC(=S)NCCCn2ccnc2)cc1,-0.207
2,Nc1nc(-c2cccnc2)nn1S(=O)(=O)c1ccccc1,0.928
3,COc1ccccc1NC(=O)CSc1nnc(-c2ccco2)o1,-0.188
4,O=C(Nc1ccc(-c2nc3ncccc3o2)cc1)c1ccc(Br)o1,-0.16
5,CC(C)(C)NC(=O)c1cccc(NC(=O)c2cccc(O)c2)c1,0.00192
6,O=C(Nc1nncs1)c1ccccc1NS(=O)(=O)c1cccs1,active: -3.16
7,COc1ccc2nc(NC(=O)CN(C)S(=O)(=O)c3cccs3)sc2c1,-0.0626
8,CC(C)CNC(=O)COC(=O)/C=C/c1ccco1,-0.235
9,COc1ccc(Nc2nc(C(=O)NCCCN3CCOCC3)cs2)cc1,-0.491
10,CCOC(=O)/C(=C/C=C1\Sc2ccccc2N1CC)C(C)=O,-2.28
11,c1ccc(Nc2cccc(Nc3ccccc3)c2)cc1,-0.671
12,CCn1c(N)c(C(=O)NCC2CCCO2)sc1=S (configuration not stated),-0.397
13,COc1ccc(-c2nnn(CC(=O)N3CCOCC3)n2)cc1,0.18
14,O=C(CCS(=O)(=O)c1ccc(Br)cc1)Nc1ccc(Cl)cc1F,0.262
15,Cc1nc(SCc2ccccc2)c(C(F)(F)F)c(=O)[nH]1,-0.0394
16,CN1OC(COC(=O)c2ccc(Cl)cc2)CC1c1ccccc1 (configuration not stated),0.02
17,Cc1cc(=O)n(C)c(=O)n1CCCCCOc1cccc([N+](=O)[O-])c1,-0.28
18,COc1ccc(Cl)cc1NC(=S)NCc1ccccn1,-0.0363
19,Cn1c(CS(=O)Cc2c(Cl)cccc2Cl)nnc1SCc1c(Cl)cccc1Cl (configuration not stated),-0.441
20,O=C(CSc1nc2ccccc2[nH]1)Nc1c(F)cccc1F,-0.135
21,CC(=O)Nc1ccc(S(=O)(=O)N(C)CC(=O)OCC(=O)Nc2cccnc2Cl)cc1,-0.172
22,CCOC(=O)c1c(C)n(C)c2ccc(OCC(O)Cn3nc(C)c(Br)c3C)cc12 (configuration not stated),0.00821
23,CCCC(=O)Nc1nc2ccc(C(=O)OCC)cc2s1,0.135

row,SMILES,z-score
1,C=CCNc1sc(C(=O)c2ccccc2)c(N)c1-c1nc2ccccc2s1,-0.131
2,CCOc1ccc(S(=O)(=O)NCCC2=CCCCC2)c2ccccc12,-0.345
3,O=C1NC(=S)S/C1=C\c1ccc(SCc2ccccc2)o1,active: 6.47
4,COc1cccc(OCc2cc(/C=N/NC(=O)c3nc(Cl)c(Cl)c(N)c3Cl)ccc2OC)c1,-0.384
5,Cc1ccc(C)c(OCC(=O)N/N=C/c2c(C)nn(-c3ccccc3)c2Cl)c1C,-0.185
6,Cc1nc2cc(CO)ccc2n1C,-0.273
7,Oc1c(C=NCc2ccc(F)cc2)[nH]c2ccc(Br)c(Cl)c12,-1.56
8,Cc1ccccc1-n1c(SCC(=O)c2c(N)n(C)c(=O)n(C)c2=O)nnc1-c1cccnc1,-0.348
9,N#C/C(=C/c1ccco1)c1nc2ccccc2s1,-0.219
10,O=Cc1ccc(OCc2ccccn2)cc1,0.197
11,CCCCCC(=O)NC(=S)Nc1ccc(NC(=O)c2ccco2)cc1,0.064
12,COc1cc2[nH]c(=O)n(CCCCCC(=O)NCCCN3CCC(C)CC3)c(=O)c2cc1OC,-0.231
13,CCCCOc1ccc(C(=O)N2CC(C)OC(C)C2)cc1 (configuration not stated),-0.154
14,COc1ccc(-n2c(C)nn(C)c2=O)cc1,0.0161
15,Cc1oc2ccc(O)cc2c1C(=O)OC(C)C,-0.379
16,O=C(c1ccc(F)cc1)N1C2CCC1CC(O)(c1ccc(F)cc1)C2 (configuration not stated),-0.612
17,Cc1ccc(C2=Nc3ccccc3N=C(c3ccco3)C2)c(O)c1,-0.197
18,CCCn1nnc(NC(=O)c2ccc(-c3cccc(Cl)c3)o2)n1,0.347
19,CCO/N=C(/C)c1c(O)c(C)c(-c2ccccc2)n(-c2ccccc2)c1=O,-0.116
20,CCOC(=O)c1ccc(NC(=O)CSc2ncccn2)cc1,-0.0145
21,CCn1c2ccccc2c2cc(NC(=O)CSc3nnc(-c4ccc(OC)cc4)n3N)ccc21,-0.318
22,O=C(Nc1ccc(F)cc1)C(Sc1nnc2ccccn12)c1ccccc1 (configuration not stated),-0.216
23,CC(=O)N1C(C(=O)O)CSC1c1ccc(C)cc1 (configuration not stated),0.63

row,SMILES,z-score
1,CCCCCn1c(SCC(=O)OC)nc2c1c(=O)[nH]c(=O)n2C,2.01
2,CCOC(=O)c1ccc(CNC(=O)CCC(=O)O)cc1,-0.433
3,COc1ccc(N2CCN(CC(=O)Nc3sccc3C#N)CC2)cc1,-0.283
4,COc1cccc(C(=O)NC2=NCCS2)c1,-0.478
5,O=C(c1cnn2c(C(F)(F)F)cc(-c3cccs3)nc12)N1CCN(C(c2ccccc2)c2ccccc2)CC1,-1.36
6,COC(=O)c1ccc(SC)cn1,-0.136
7,CCCN(CCC)C(=O)CP(=O)(c1ccccc1)c1ccccc1,-0.0382
8,c1ccc(CC2CCN(C(c3cccs3)c3nnnn3C3CCCC3)CC2)cc1 (configuration not stated),-0.0415
9,COc1cccc(-c2nc(CS(=O)CC(=O)O)c(C)o2)c1 (configuration not stated),0.0172
10,CCOC(=O)CSc1nc(-c2ccccc2)nc2ccccc12,-0.121
11,CSc1ccc(S(=O)(=O)Nc2ccc(NC(C)=O)cc2)cc1,0.423
12,COc1cc(NC(=O)c2ccco2)c(OC)cc1NC(=O)CCC(=O)Nc1cc(C)cc(C)c1,-0.284
13,C=CCn1c(N)c(C(=O)OC(C)(C)C)c2nc3ccccc3nc21,active: -3.18
14,COc1ccc(-n2nc(C(=O)NCC(=O)NCC3CCCO3)c3ccccc3c2=O)cc1 (configuration not stated),0.0632
15,CCOC(=O)c1cc(C(=O)OCC)cc(-n2cc(O)c(C(=O)OCC)n2)c1,-0.0997
16,CN(CC(=O)Nc1ccc(S(=O)(=O)N2CCCC2)cc1)Cc1ccc(Cl)cc1,-0.459
17,Nc1c(S(=O)(=O)c2cccs2)c2nc3ccccc3nc2n1CCc1ccccc1,0.0551
18,O=C1c2ccccc2C(=O)N1CSc1nnc(Nc2ccccc2F)s1,-0.0871
19,Cc1cc(C)nc(NC(=O)c2cc([N+](=O)[O-])cc([N+](=O)[O-])c2)n1,-0.0784
20,Fc1ccc(NC(=S)NCc2ccccn2)cc1,-0.286
21,CCCOc1ccc(/C(O)=C2/C(=O)C(=O)N(CCN(C)C)C2c2ccncc2)cc1 (configuration not stated),0.268
22,Cc1cc(C)c(C)c(S(=O)(=O)Nc2ccc(OCC(=O)O)cc2)c1C,-0.015
23,CCCOC(=O)c1ccc(Nc2nc(C)cc(=O)[nH]2)cc1,0.778

row,SMILES,z-score
1,CCCCc1c(C)c2cc(C)ccc2[nH]c1=O,0.186
2,CCOC(=O)C(C(C)=O)C(c1ccc(OCCC(C)C)cc1)C(C(C)=O)C(=O)OCC (configuration not stated),0.169
3,COc1ccc(C(NC(=O)CNC(C)=O)C(=O)Nc2ccc(C(C)C)cc2)cc1 (configuration not stated),0.131
4,O=C1CN(Cc2ccccc2)C(=NCc2ccco2)S1,-0.501
5,CS(=O)(=O)N(CC(N)=O)Cc1ccc(Cl)cc1,0.738
6,Cc1nc2ccccn2c1C(=O)CSc1ccccc1Cl,0.099
7,Cc1ccc(S(=O)(=O)NC2=NCN(C3CCN(Cc4ccccc4)CC3)CN2)cc1,-0.332
8,Cc1ccc(S(=O)(=O)N(C)c2ccc(OCC(=O)NCc3ccco3)cc2)cc1,-0.403
9,NS(=O)(=O)c1ccc(CNC(=O)CC23CC4CC(CC(C4)C2)C3)cc1,-0.125
10,O=C(NCCc1ccccc1)c1ccc(Cl)nc1,-0.316
11,CC(=O)c1cccc(NC(=O)COc2cc3oc(=O)c(CC(C)O)c(C)c3cc2Cl)c1 (configuration not stated),-1.11
12,Cc1ccc(CN(Cc2ccco2)C(=S)NCC(=O)O)cc1,1.34
13,CCCCNc1cc(=O)oc2ccccc12,-0.226
14,COc1cc(OC)cc(C(=O)NC2=NCCS2)c1,-0.162
15,CC(CCc1ccccc1)NC(=O)COC(=O)CC1CC2CCC1C2 (configuration not stated),-0.285
16,COc1ccc(CCNC(=O)CCC(=O)N2CCN(S(=O)(=O)c3ccccc3)CC2)cc1OC,-0.162
17,COc1ccc(-c2oc3ncn(CCN4CCOCC4)c(=N)c3c2-c2ccc(OC)cc2)cc1,2.6
18,Cc1cccc(NC(=O)Cn2cc(C(=O)c3ccco3)c3ccccc32)c1,0.00152
19,COc1ccc(CCNC(=O)C2CCN(S(=O)(=O)c3cc(OC)ccc3OC)CC2)cc1,-0.206
20,CCn1nnnc1SCC(=O)c1ccc(C)cc1C,-0.0173
